# In PMC12820563, “FoxP3 forms a head-to-head dimer in vivo and stabilizes its multimerization on adjacent microsatellites”:
# The list shows a part of the results.
# Target: T1, MBP-FoxP1dN (Mus musculus, UniProt P58462 326-579)
# T1 sequence: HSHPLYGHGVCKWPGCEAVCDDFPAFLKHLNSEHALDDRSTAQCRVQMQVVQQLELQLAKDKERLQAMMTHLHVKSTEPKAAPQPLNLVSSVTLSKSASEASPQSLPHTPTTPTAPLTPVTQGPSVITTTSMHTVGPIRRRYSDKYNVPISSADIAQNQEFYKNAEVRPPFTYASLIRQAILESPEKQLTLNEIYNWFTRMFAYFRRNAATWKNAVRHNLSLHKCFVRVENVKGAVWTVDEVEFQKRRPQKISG
# Experiment: PD-seq (MBP pull-down with sequencing); 20 mM Tris-HCl pH 7.5, 100 mM NaCl, 1.5 mM MgCl2, 0.4 uM protein, 0.1 uM dsDNA library, 30 min, room temperature, amylose pull-down; high values mean tight binding
# Settings: protein: recombinant; tags: His6-MBP; chain copies: 2; dsDNA, one strand shown
# Procedure, shortened: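 Binding is reads-per-million enrichment of pull-down over input, with replicates pooled. It comes from 30 min room-temperature incubation in Tris pH 7.5 buffer with NaCl and MgCl2 of 0.4 µM His6-MBP-tagged, N-terminally truncated mouse FoxP3 or FoxP1 fragment from E. coli with 0.1 µM Klenow-filled degenerate double-stranded DNA library, followed by amylose resin capture, three washes and Illumina sequencing of the released DNA.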
row,Sequence,binding signal
1,GATGATTGTTCTCCCAGCTGATGAATTTAGCTCTTCGAGTAAACAAATTTTCCTAATCTTTCTGTTCAAGCGCCATCTAC,0.826 RPM ratio (pull-down/input)
2,GATGATTGTTCTCCCAGCTGATGAATTGAGATAGTCGAGTAAACAAATTTTCCTAATCTTTCTGTTCAAGCGCCATCTAC,0.891 RPM ratio (pull-down/input)
3,GATGATTGTTCTCCCAGCTGATGAATTAATCAGATCGAGTAAACAAATTTTCCTAATCTTTCTGTTCAAGCGCCATCTAC,0.846 RPM ratio (pull-down/input)
4,GATGATTGTTCTCCCAGCTGATGAATTTGAACTTTCGAGTAAACAAATTTTCCTAATCTTTCTGTTCAAGCGCCATCTAC,0.845 RPM ratio (pull-down/input)
5,GATGATTGTTCTCCCAGCTGATGAATTGTAATGGTCGAGTAAACAAATTTTCCTAATCTTTCTGTTCAAGCGCCATCTAC,0.896 RPM ratio (pull-down/input)
6,GATGATTGTTCTCCCAGCTGATGAATTACGTATTTCGAGTAAACAAATTTTCCTAATCTTTCTGTTCAAGCGCCATCTAC,1.14 RPM ratio (pull-down/input)
7,GATGATTGTTCTCCCAGCTGATGAATTGGGTCAGTCGAGTAAACAAATTTTCCTAATCTTTCTGTTCAAGCGCCATCTAC,0.796 RPM ratio (pull-down/input)
8,GATGATTGTTCTCCCAGCTGATGAATTAACGGCGTCGAGTAAACAAATTTTCCTAATCTTTCTGTTCAAGCGCCATCTAC,0.945 RPM ratio (pull-down/input)
9,GATGATTGTTCTCCCAGCTGATGAATTGTCGAACTCGAGTAAACAAATTTTCCTAATCTTTCTGTTCAAGCGCCATCTAC,0.936 RPM ratio (pull-down/input)
10,GATGATTGTTCTCCCAGCTGATGAATTTTCGGGATCGAGTAAACAAATTTTCCTAATCTTTCTGTTCAAGCGCCATCTAC,0.824 RPM ratio (pull-down/input)
11,GATGATTGTTCTCCCAGCTGATGAATTCGTCTGATCGAGTAAACAAATTTTCCTAATCTTTCTGTTCAAGCGCCATCTAC,0.84 RPM ratio (pull-down/input)
12,GATGATTGTTCTCCCAGCTGATGAATTTGAGGAATCGAGTAAACAAATTTTCCTAATCTTTCTGTTCAAGCGCCATCTAC,0.905 RPM ratio (pull-down/input)
13,GATGATTGTTCTCCCAGCTGATGAATTCCTGAACTCGAGTAAACAAATTTTCCTAATCTTTCTGTTCAAGCGCCATCTAC,0.79 RPM ratio (pull-down/input)
14,GATGATTGTTCTCCCAGCTGATGAATTCGCTCACTCGAGTAAACAAATTTTCCTAATCTTTCTGTTCAAGCGCCATCTAC,0.816 RPM ratio (pull-down/input)
15,GATGATTGTTCTCCCAGCTGATGAATTGTATCTGTCGAGTAAACAAATTTTCCTAATCTTTCTGTTCAAGCGCCATCTAC,1.08 RPM ratio (pull-down/input)
16,GATGATTGTTCTCCCAGCTGATGAATTAGTACTTTCGAGTAAACAAATTTTCCTAATCTTTCTGTTCAAGCGCCATCTAC,1.02 RPM ratio (pull-down/input)
17,GATGATTGTTCTCCCAGCTGATGAATTATCGCGCTCGAGTAAACAAATTTTCCTAATCTTTCTGTTCAAGCGCCATCTAC,0.975 RPM ratio (pull-down/input)
18,GATGATTGTTCTCCCAGCTGATGAATTGGTCCAGTCGAGTAAACAAATTTTCCTAATCTTTCTGTTCAAGCGCCATCTAC,0.84 RPM ratio (pull-down/input)
19,GATGATTGTTCTCCCAGCTGATGAATTTGCCTCTTCGAGTAAACAAATTTTCCTAATCTTTCTGTTCAAGCGCCATCTAC,1.06 RPM ratio (pull-down/input)
20,GATGATTGTTCTCCCAGCTGATGAATTTCACCCTTCGAGTAAACAAATTTTCCTAATCTTTCTGTTCAAGCGCCATCTAC,0.881 RPM ratio (pull-down/input)
21,GATGATTGTTCTCCCAGCTGATGAATTTGAAAGGTCGAGTAAACAAATTTTCCTAATCTTTCTGTTCAAGCGCCATCTAC,0.81 RPM ratio (pull-down/input)

row,Sequence,binding signal
1,GATGATTGTTCTCCCAGCTGATGAATTACGAACTTCGAGTAAACAAATTTTCCTAATCTTTCTGTTCAAGCGCCATCTAC,0.975 RPM ratio (pull-down/input)
2,GATGATTGTTCTCCCAGCTGATGAATTCTCGGCCTCGAGTAAACAAATTTTCCTAATCTTTCTGTTCAAGCGCCATCTAC,0.731 RPM ratio (pull-down/input)
3,GATGATTGTTCTCCCAGCTGATGAATTATATTCGTCGAGTAAACAAATTTTCCTAATCTTTCTGTTCAAGCGCCATCTAC,0.944 RPM ratio (pull-down/input)
4,GATGATTGTTCTCCCAGCTGATGAATTTGCCCGATCGAGTAAACAAATTTTCCTAATCTTTCTGTTCAAGCGCCATCTAC,0.831 RPM ratio (pull-down/input)
5,GATGATTGTTCTCCCAGCTGATGAATTACCCTAATCGAGTAAACAAATTTTCCTAATCTTTCTGTTCAAGCGCCATCTAC,1.13 RPM ratio (pull-down/input)
6,GATGATTGTTCTCCCAGCTGATGAATTCGGTCCTTCGAGTAAACAAATTTTCCTAATCTTTCTGTTCAAGCGCCATCTAC,0.805 RPM ratio (pull-down/input)
7,GATGATTGTTCTCCCAGCTGATGAATTTCAAGCATCGAGTAAACAAATTTTCCTAATCTTTCTGTTCAAGCGCCATCTAC,1.01 RPM ratio (pull-down/input)
8,GATGATTGTTCTCCCAGCTGATGAATTCCGTGATTCGAGTAAACAAATTTTCCTAATCTTTCTGTTCAAGCGCCATCTAC,0.843 RPM ratio (pull-down/input)
9,GATGATTGTTCTCCCAGCTGATGAATTTACTCAATCGAGTAAACAAATTTTCCTAATCTTTCTGTTCAAGCGCCATCTAC,1.35 RPM ratio (pull-down/input)
10,GATGATTGTTCTCCCAGCTGATGAATTAGTGTAGTCGAGTAAACAAATTTTCCTAATCTTTCTGTTCAAGCGCCATCTAC,1.05 RPM ratio (pull-down/input)
11,GATGATTGTTCTCCCAGCTGATGAATTTGTTGGGTCGAGTAAACAAATTTTCCTAATCTTTCTGTTCAAGCGCCATCTAC,1.56 RPM ratio (pull-down/input)
12,GATGATTGTTCTCCCAGCTGATGAATTCGTCTCGTCGAGTAAACAAATTTTCCTAATCTTTCTGTTCAAGCGCCATCTAC,0.814 RPM ratio (pull-down/input)
13,GATGATTGTTCTCCCAGCTGATGAATTTGACGTATCGAGTAAACAAATTTTCCTAATCTTTCTGTTCAAGCGCCATCTAC,0.962 RPM ratio (pull-down/input)
14,GATGATTGTTCTCCCAGCTGATGAATTCGTCTTATCGAGTAAACAAATTTTCCTAATCTTTCTGTTCAAGCGCCATCTAC,0.93 RPM ratio (pull-down/input)
15,GATGATTGTTCTCCCAGCTGATGAATTGAATGAATCGAGTAAACAAATTTTCCTAATCTTTCTGTTCAAGCGCCATCTAC,0.958 RPM ratio (pull-down/input)
16,GATGATTGTTCTCCCAGCTGATGAATTCTTACCGTCGAGTAAACAAATTTTCCTAATCTTTCTGTTCAAGCGCCATCTAC,0.868 RPM ratio (pull-down/input)
17,GATGATTGTTCTCCCAGCTGATGAATTCCTCGCATCGAGTAAACAAATTTTCCTAATCTTTCTGTTCAAGCGCCATCTAC,1.09 RPM ratio (pull-down/input)
18,GATGATTGTTCTCCCAGCTGATGAATTCGCACAGTCGAGTAAACAAATTTTCCTAATCTTTCTGTTCAAGCGCCATCTAC,0.856 RPM ratio (pull-down/input)
19,GATGATTGTTCTCCCAGCTGATGAATTATCCAAGTCGAGTAAACAAATTTTCCTAATCTTTCTGTTCAAGCGCCATCTAC,0.914 RPM ratio (pull-down/input)
20,GATGATTGTTCTCCCAGCTGATGAATTCAATAAATCGAGTAAACAAATTTTCCTAATCTTTCTGTTCAAGCGCCATCTAC,1.23 RPM ratio (pull-down/input)
21,GATGATTGTTCTCCCAGCTGATGAATTACCAGTCTCGAGTAAACAAATTTTCCTAATCTTTCTGTTCAAGCGCCATCTAC,0.859 RPM ratio (pull-down/input)

row,Sequence,binding signal
1,GATGATTGTTCTCCCAGCTGATGAATTCAGAGAATCGAGTAAACAAATTTTCCTAATCTTTCTGTTCAAGCGCCATCTAC,0.918 RPM ratio (pull-down/input)
2,GATGATTGTTCTCCCAGCTGATGAATTATGAGCATCGAGTAAACAAATTTTCCTAATCTTTCTGTTCAAGCGCCATCTAC,1.16 RPM ratio (pull-down/input)
3,GATGATTGTTCTCCCAGCTGATGAATTATGCCGCTCGAGTAAACAAATTTTCCTAATCTTTCTGTTCAAGCGCCATCTAC,0.975 RPM ratio (pull-down/input)
4,GATGATTGTTCTCCCAGCTGATGAATTCGAACCGTCGAGTAAACAAATTTTCCTAATCTTTCTGTTCAAGCGCCATCTAC,0.827 RPM ratio (pull-down/input)
5,GATGATTGTTCTCCCAGCTGATGAATTAGTTAATTCGAGTAAACAAATTTTCCTAATCTTTCTGTTCAAGCGCCATCTAC,1.06 RPM ratio (pull-down/input)
6,GATGATTGTTCTCCCAGCTGATGAATTGGCTAAATCGAGTAAACAAATTTTCCTAATCTTTCTGTTCAAGCGCCATCTAC,0.965 RPM ratio (pull-down/input)
7,GATGATTGTTCTCCCAGCTGATGAATTCCATAACTCGAGTAAACAAATTTTCCTAATCTTTCTGTTCAAGCGCCATCTAC,0.789 RPM ratio (pull-down/input)
8,GATGATTGTTCTCCCAGCTGATGAATTTAGCCACTCGAGTAAACAAATTTTCCTAATCTTTCTGTTCAAGCGCCATCTAC,0.885 RPM ratio (pull-down/input)
9,GATGATTGTTCTCCCAGCTGATGAATTGTGCGTCTCGAGTAAACAAATTTTCCTAATCTTTCTGTTCAAGCGCCATCTAC,1.09 RPM ratio (pull-down/input)
10,GATGATTGTTCTCCCAGCTGATGAATTCCACCTATCGAGTAAACAAATTTTCCTAATCTTTCTGTTCAAGCGCCATCTAC,0.864 RPM ratio (pull-down/input)
11,GATGATTGTTCTCCCAGCTGATGAATTTGTACTCTCGAGTAAACAAATTTTCCTAATCTTTCTGTTCAAGCGCCATCTAC,1.15 RPM ratio (pull-down/input)
12,GATGATTGTTCTCCCAGCTGATGAATTGTTCACATCGAGTAAACAAATTTTCCTAATCTTTCTGTTCAAGCGCCATCTAC,1.19 RPM ratio (pull-down/input)
13,GATGATTGTTCTCCCAGCTGATGAATTTGAAGAATCGAGTAAACAAATTTTCCTAATCTTTCTGTTCAAGCGCCATCTAC,0.925 RPM ratio (pull-down/input)
14,GATGATTGTTCTCCCAGCTGATGAATTAATCCACTCGAGTAAACAAATTTTCCTAATCTTTCTGTTCAAGCGCCATCTAC,0.965 RPM ratio (pull-down/input)
15,GATGATTGTTCTCCCAGCTGATGAATTTGTTAGCTCGAGTAAACAAATTTTCCTAATCTTTCTGTTCAAGCGCCATCTAC,1.36 RPM ratio (pull-down/input)
16,GATGATTGTTCTCCCAGCTGATGAATTGAAGTTATCGAGTAAACAAATTTTCCTAATCTTTCTGTTCAAGCGCCATCTAC,0.989 RPM ratio (pull-down/input)
17,GATGATTGTTCTCCCAGCTGATGAATTGGAATAGTCGAGTAAACAAATTTTCCTAATCTTTCTGTTCAAGCGCCATCTAC,0.865 RPM ratio (pull-down/input)
18,GATGATTGTTCTCCCAGCTGATGAATTCCACTACTCGAGTAAACAAATTTTCCTAATCTTTCTGTTCAAGCGCCATCTAC,0.729 RPM ratio (pull-down/input)
19,GATGATTGTTCTCCCAGCTGATGAATTTCGTTAATCGAGTAAACAAATTTTCCTAATCTTTCTGTTCAAGCGCCATCTAC,0.996 RPM ratio (pull-down/input)
20,GATGATTGTTCTCCCAGCTGATGAATTCGCTTCCTCGAGTAAACAAATTTTCCTAATCTTTCTGTTCAAGCGCCATCTAC,0.851 RPM ratio (pull-down/input)
21,GATGATTGTTCTCCCAGCTGATGAATTGGTTAAGTCGAGTAAACAAATTTTCCTAATCTTTCTGTTCAAGCGCCATCTAC,0.981 RPM ratio (pull-down/input)
